Laboratory results: publication PMC5584178
Where a chain is given by its changes, count along the chain named. No constants are given. Whether binding was seen depends on the method and setting. In cells and extracts the contact can be indirect. Some binding calls cover weakened binding; strength is not graded here. Tags and fused reporters may be left off the sequences shown. Each block holds one binder with its values, some of them ahead of it.

Tests used:
[1] = molecular target: T1, GFPn.Sid4(466–660) (fission yeast) (UniProt O60187); experiment: co-IP; GFP-tagged Sid4(466-660) fragments precipitated with GFP-Trap-M from S. pombe lysate in IP1 buffer (50 mM Tris-Cl pH 8, 50 mM NaCl, 0.5% triton-X100); Ppc89.3Pk detected by Western blot with antibody to the Pk epitope
T1 sequence: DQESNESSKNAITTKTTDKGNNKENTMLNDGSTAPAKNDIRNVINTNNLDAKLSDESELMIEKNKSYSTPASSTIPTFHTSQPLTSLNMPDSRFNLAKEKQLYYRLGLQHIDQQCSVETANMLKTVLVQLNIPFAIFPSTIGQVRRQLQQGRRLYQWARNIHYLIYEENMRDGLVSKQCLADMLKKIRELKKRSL

[2] = molecular target: T2, GFPn.Sid4(466–660) T584V (fission yeast) (UniProt O60187); experiment: as above
T2 sequence: T1 sequence with T119V

[3] = molecular target: T3, Sid4.T275AS278AcYFP (fission yeast) (UniProt O60187); experiment: split reporter; BiFc with halves of Venus YFP fused to Cds1 and Sid4, fluorescence at the SPB of live S. pombe cells; dma1^+ and dma1.Δ strains
T3 sequence: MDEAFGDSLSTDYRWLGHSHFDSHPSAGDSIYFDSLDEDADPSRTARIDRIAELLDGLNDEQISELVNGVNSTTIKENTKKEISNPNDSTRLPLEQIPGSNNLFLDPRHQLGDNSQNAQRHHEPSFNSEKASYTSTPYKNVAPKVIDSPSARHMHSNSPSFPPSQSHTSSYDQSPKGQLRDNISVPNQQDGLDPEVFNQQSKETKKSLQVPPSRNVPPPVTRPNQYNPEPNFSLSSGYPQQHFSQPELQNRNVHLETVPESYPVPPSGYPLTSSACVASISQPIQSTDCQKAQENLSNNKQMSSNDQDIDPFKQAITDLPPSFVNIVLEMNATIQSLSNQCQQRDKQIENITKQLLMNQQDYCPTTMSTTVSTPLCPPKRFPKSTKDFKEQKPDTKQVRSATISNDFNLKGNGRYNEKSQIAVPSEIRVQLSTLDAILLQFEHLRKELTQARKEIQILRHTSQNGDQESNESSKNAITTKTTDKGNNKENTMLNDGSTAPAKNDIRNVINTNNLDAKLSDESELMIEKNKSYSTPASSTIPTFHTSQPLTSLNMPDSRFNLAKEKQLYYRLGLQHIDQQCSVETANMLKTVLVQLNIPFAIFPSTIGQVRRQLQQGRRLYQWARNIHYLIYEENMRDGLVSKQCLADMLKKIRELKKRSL

[4] = molecular target: T4, Sid4.cYFP (fission yeast) (UniProt O60187); experiment: as above
T4 sequence: T3 sequence with A275T, A278S

binding [1]: binds
binding [2]: binds
B1: Ppc89.3Pk (protein, UniProt Q10218 1-783)
chain: MPSQFNDNFVATDDDVGTMARVGMALDRELNGDSFQDNLNFQPRSGKREDFEPFFQDTPNTKSLSKHFHDFTMNASLETLPSVEKPRGRNMNAFEETSWNRFRKNGSLFPLSSPPISEPDLRPQALNETPDYRNRFLGAFKKQGVLDDHGNLKLDASPSFLKKPAEYTPLANRQNQNLAFDSPTEALPPKPTTPWRRNGFRSKTTPNLNSGKETPSSYKASARLMEQLGLNHSEPSVDFNNQTSYRLPNLTNLSSLIRDDTIDENGNAKEHDRLPELNTIPVASTDEQLFNAHQLLEKKFEILKRERNECNAKIDELQDKLELLTDAYNREKRRARSLEERMSKEMLTKLGESNVDDGMAASRYDTVKREKERLSEHLKSLQEQYEHIQSVYKNVLLDRESYIMRLGNKISENNELLNENRVLKEKLQTYLDKKESNVTSKIKSTAENSSKPLSMNEADERKDGLNNLLFENKSGANTKEMSNGTETAKENCSPQQDSTSPTSGYQDLVKELAKEIEMRKSLELKLKLSQSNKAGPVKHRKRRPKSKRRITGKVVFDSPNVASGVESDEGSEEISLDSEYSDILSDDGDFEKEKQATLPRRRSSSSMKGNKLAEDSYLNEAGFDWNQGTFHNGSEFGTTGVPDEPNEEELPKHVLKQVEHIINESAAHGVGKCNACHARQEDLIRGEQKVSHSNCLYADQTLRPSQPPSEALKTVVNQLTNELMELKKRYEKLSDRYNSLTPGYHKHKRQEIKNKLIKLIECMESKSDQIYLLYDVNVGKDFS

binding [3]: no binding
binding [4]: binds
B2: Chk2^Cds1.nYFP (enzyme, UniProt Q09170 1-460)
chain: MEEPEEATQATQEAPLHVSQNIAKQVVNNENVFMKLVMTRMLDGKTEVIPLTTDVHNGFWRFGRHKSCEVVLNGPRVSNFHFEIYQGHRNDSDESENVVFLHDHSSNGTFLNFERLAKNSRTILSNGDEIRIGLGVPKDEISFLCQVPVKHSRDSQKNMIKSENSHYEIIRTLGSGTFAVVKLAVEVNSGKWYAIKIINKRKILLTSSEKRATEMFQREIDILKSLHHPGVVQCHEIFENDDELFIVMEYVEGGDLMDFLIANGSIDEQDCKPLLKQLLETLLHLHKQGVTHRDIKPENILITNDFHLKISDFGLAKVIHGTGTFLETFCGTMGYLAPEVLKSKNVNLDGGYDDKVDIWSLGCVLYVMLTASIPFASSSQAKCIELISKGAYPIEPLLENEISEEGIDLINRMLEINPEKRISESEALQHPWFYTVSTHEHRTPPSSSEHEATEQLNSSS
